Our source for the nonsense suppression values is the RNAGym collection of RNA variant scans (doi:10.1101/gad.245936.114).

The labels stand for the following.
B1: tRNA (parent)
chain: CUCUCGGUAGCCAAGUUGGUUUAAGGCGCAAGACUUUAAUUUAUCACUACGAAAUCUUGAGAUCGGGCGUUCGACUCGCCCCCGGGAGAUUUUUUCCUCGAGCAA

Variants at the floor of the assay are shown more often than the library holds them.

Variants of B1 are the subject of the data set. Nature of the data set: nonsense suppression (GFP-seq) (ratio to wild type); higher = more function; SUP4oc tRNA, yeast GFP reporter sort-seq. Summed up:
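Sorted GFP/RFP bins of yeast were each Illumina-sequenced with a phred ≥30 cutoff; the cells held a genome-integrated ochre-suppressor tRNA variant from a library with ~3% random mutations, a galactose-driven GFP ochre reporter, and RFP. Culture was in raffinose/galactose medium containing 80 mg/L adenine. Nonsense suppression, termed GFPSEQ, is the median GFP/RFP of the bins weighted by each variant's estimated cell share per bin, relative to the unmutated parent tRNA, for variants reaching ≥100 reads and ≥30 cells.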
Consider U4G C12A C81A, for which the nonsense suppression was not above 0.026.

In the case of G7C C77G, the nonsense suppression is not above 0.026. Then U8C G26U G84C, with not above 0.026; and A23U G59C, with not above 0.026; and G69U G78A C81U, with not above 0.026. C3U U63A: the nonsense suppression came to 0.12. Take C11A G18U: the nonsense suppression is not above 0.026. As to A33G A60U G65C G66C, the nonsense suppression is not above 0.026. Consider U63A G67C, for which the nonsense suppression is not above 0.026. On to C1U A23C, for which the nonsense suppression was not above 0.026.

On to C29U G59C C77U A87U, for which the nonsense suppression was not above 0.026. Then G61C G67A, with 0.0647; and G7U A13U G32U, with not above 0.026; and G59U U70A, with not above 0.026. For the variant C27A G65C U71A, the nonsense suppression is not above 0.026. In the case of A54U A60G U70C it was not above 0.026. Then A23C A60G A74G, with not above 0.026; and C1A A9U G25A G32U, with not above 0.026. In the case of C81A G84C it was not above 0.026; in that of U4C G65A, not above 0.026. Consider U20G A60G, for which the nonsense suppression is 0.477. Then G15C U35C, with not above 0.026. U70G C82A: the nonsense suppression was not above 0.026.

On to C29A A54U, for which the nonsense suppression is not above 0.026. Turning to C11U C29A U71C G84U, the nonsense suppression is not above 0.026. Then C3A A14G C29A A33U C56U, with not above 0.026; and C3G U70A, with not above 0.026. As for G15A G67U C72G, the nonsense suppression is not above 0.026. Then A9C G19A C29A, with not above 0.026; and A31G U71G C83U, with not above 0.026; and G28U A60G A62C C77U, with not above 0.026.

For U8C A31G G67A, the nonsense suppression is not above 0.026. Then A13C G18U, with not above 0.026; and U55G U70G, with not above 0.026; and C11U G19U C72A U76C G86U, with not above 0.026. In the case of U8A G61A it was not above 0.026. With A31G U35A, the nonsense suppression came to 0.0292.

For A31U G61U C64G, the nonsense suppression was not above 0.026. Turning to G7C A23C G32A, the nonsense suppression was not above 0.026. Then C12G A13G U71C, with not above 0.026; and G15C A54G U76A, with not above 0.026. In the case of G15U A74G A89U it was not above 0.026; in that of C29A A33G U55C, not above 0.026. Take C5U A13G U17A G61U G88C: the nonsense suppression was not above 0.026.

As for C80A C82U, the nonsense suppression is not above 0.026.

As to U20C U22C C56G U70G U71A A74G C80G A89C, the nonsense suppression is not above 0.026. Regarding G19A U20G G25C U35A, the nonsense suppression is not above 0.026.

For the variant A23U U35C U70C G88A, the nonsense suppression was not above 0.026. In the case of U58G C81U it was not above 0.026; in that of A23U A31G A33G G67C, not above 0.026.

For U8A G32U, the nonsense suppression was not above 0.026. Take C1G C3A A54G: the nonsense suppression was not above 0.026. Then A9C G61A C81A, with not above 0.026; and G18U A89C, with not above 0.026; and G15C U17C C83U, with not above 0.026. In the case of A9U G59U C81G it was not above 0.026; in that of G6C U8G, not above 0.026; in that of C12G C34A G86C, not above 0.026. With U20G C79A, the nonsense suppression is not above 0.026.

Turning to C34U G84A, the nonsense suppression is not above 0.026. Take A9U G25U G26C C64A G65A G73A: the nonsense suppression is not above 0.026. In the case of U2A G6A G25U A33G A62C U71A it was not above 0.026. In the case of G10U C27G A31G C34U it was not above 0.026; in that of U21A C72A, not above 0.026; in that of C27A A30G G61U C72U G85A, not above 0.026. With A23C G59C G67C, the nonsense suppression is not above 0.026.

For G6C C75A, the nonsense suppression is not above 0.026.

As to U20A G66C, the nonsense suppression was not above 0.026. Then A74U G85U, with not above 0.026; and G32A A33G U63A, with not above 0.026; and A62U U63C, with not above 0.026. G7C G19C G66U G69C: the nonsense suppression was not above 0.026. As to U57A G69U U71A, the nonsense suppression was not above 0.026. In the case of U16A G28C A30U A74G it was not above 0.026; in that of U17A C64U C72U, not above 0.026. Then A14C G18U A62G, with not above 0.026; and A31U A33G G59A U76A, with not above 0.026. Then U17A C34A G59A, with not above 0.026; and A31G U58G, with not above 0.026; and G10A A23U G67C G86A, with not above 0.026. In the case of U21A A23C U76C C80G, the nonsense suppression is not above 0.026. On to G65A G85A, for which the nonsense suppression was not above 0.026. In the case of U4C C34A, the nonsense suppression came to 0.0274. For C27A G59C G69C U76A G84A, the nonsense suppression was not above 0.026. In the case of U2G U71A G86A A89U it was not above 0.026; in that of G18A C72G C79A G86A, not above 0.026; in that of A14C G18A C29U, not above 0.026.

In the case of A33G A60C G86U, the nonsense suppression is not above 0.026. In the case of C11G A30G C77A it was not above 0.026; in that of U22G G25U G66U, not above 0.026. In the case of G10C C34G G65A it was not above 0.026; in that of A9U C12A A14G A31C, not above 0.026.

C64G C75G C77U G78C C83A: the nonsense suppression is not above 0.026. In the case of A14U A62C C75U G84U it was not above 0.026. In the case of C11G G65A it was not above 0.026. Then U2A U16C A23U G32U C34A G59A, with not above 0.026; and G26U A89C, with not above 0.026; and C12G C29U C64G, with not above 0.026.

As for U8G A9U G88A, the nonsense suppression was not above 0.026. Regarding C5A G7U A23U G25U U71A, the nonsense suppression was not above 0.026.

Turning to C80A C81G, the nonsense suppression was not above 0.026. Consider C12U A13C U20C A60C G85A, for which the nonsense suppression was not above 0.026. Then C3U U21A G61C C68U U76C, with not above 0.026. Consider U35A U70C G73U C81U, for which the nonsense suppression was not above 0.026. U21G C27A U63C: the nonsense suppression is not above 0.026. In the case of C64G U71A it was not above 0.026; in that of U4A A9U, 0.2; in that of U17A G67U C72G C77G, not above 0.026.

Take C3A A89U: the nonsense suppression is not above 0.026. As for G10U U16C C34A U70G G73U G78A C82U, the nonsense suppression was not above 0.026. For the variant C29A G84A, the nonsense suppression was not above 0.026. Then G19U U20G G59C G67U, with not above 0.026; and A33G C68A, with not above 0.026. Then C72U G85U, with 0.0294; and U22G A62G C80U, with not above 0.026. In the case of C34A U70A it was not above 0.026; in that of U55A C80A G86C, not above 0.026. Take U35C G67A C83G: the nonsense suppression was not above 0.026. Then U20G C29A G32C A60C G84C, with not above 0.026. For C3A U22C U57G, the nonsense suppression was not above 0.026.

A24G A30G C68U G86U: the nonsense suppression is not above 0.026. In the case of U4A G18A C77A it was not above 0.026. Then U4G C79U, with 0.173.

In the case of C1A A9U U20A G73A, the nonsense suppression is not above 0.026. In the case of G26U C56A, the nonsense suppression is not above 0.026. Then U8C G28C C34U C56A U63C, with not above 0.026; and C1U C11G C12A A33G G69U G73C, with not above 0.026.

For C75U G78A, the nonsense suppression was 0.9.

On to G66C C82G, for which the nonsense suppression is not above 0.026. As for C83G G86U, the nonsense suppression is not above 0.026.

Regarding G67A A89C, the nonsense suppression is not above 0.026. In the case of C56A G61C U71A C77G it was not above 0.026. For G6U U17G C79U, the nonsense suppression was not above 0.026. Then C1A G19A C82G, with not above 0.026. In the case of A13G A31G C81U it was not above 0.026; in that of G6U G26C A33G U70G C77G, not above 0.026; in that of G26U C29A, not above 0.026. Then G61A G67C, with not above 0.026; and A24C G65A C83A, with not above 0.026. On to C5U U71A, for which the nonsense suppression was not above 0.026.

Turning to G28A A54C, the nonsense suppression amounted to 0.878. In the case of U21A U55A G61A C72U A74U it was not above 0.026.

With G61U G67U C72U, the nonsense suppression was not above 0.026. In the case of U16C U17A U20G U35C G86U it was not above 0.026; in that of U8A A74G C80G, not above 0.026. Regarding G26U C29U U71C, the nonsense suppression is not above 0.026. Consider C1U C5G, for which the nonsense suppression was not above 0.026.

As to U17A U22G, the nonsense suppression was 1.03. Then C29G A33G A54C G69C U71A U76C, with not above 0.026; and C12G G86C, with not above 0.026; and G61A C79G, with not above 0.026. Turning to C1A C56U G65A, the nonsense suppression was not above 0.026. As to U2C G65C G88C, the nonsense suppression was not above 0.026. C5G U8C A60C G65C A87C: the nonsense suppression is not above 0.026. For the variant U21G A33G U55C G59U, the nonsense suppression was not above 0.026.

As for A9C A13U U71C, the nonsense suppression was not above 0.026. For U35A G86U, the nonsense suppression is not above 0.026.

With C77A G86A, the nonsense suppression is not above 0.026. C3A U57G C81U: the nonsense suppression is not above 0.026.

Turning to G6C G10C A24C A30G C82G, the nonsense suppression is not above 0.026. In the case of A13C G26C it was not above 0.026; in that of C27U A31U C34G G69U, not above 0.026. Then A23U, with not above 0.026. A9U A23U G59U G67U G78U C83A: the nonsense suppression is not above 0.026. Then C1A G61C G78A A87G, with not above 0.026; and A30U U55A A74C, with not above 0.026.

Regarding G7C U17A G32U C80G, the nonsense suppression is not above 0.026.
